Source: PubChem BioAssay AID1645882 (National Center for Advancing Translational Sciences (NCATS), 2021)
Among all 16,000 compounds or so, about 120 (0.75%) were called active. About 4% were inconclusive and are not listed. Calls come from the whole dose curve; as a rule, active = well fitted inhibition curve with a large enough effect; inconclusive = small, poorly fitted or top-dose-only effect; inactive = no such curve, though single readings can be large or run the other way. Some of the results follow.

Molecular target: Rap guanine nucleotide exchange factor 3 (Homo sapiens) (UniProt O95398)
Sequence of UniProt O95398 (O95398 whole entry, looked up): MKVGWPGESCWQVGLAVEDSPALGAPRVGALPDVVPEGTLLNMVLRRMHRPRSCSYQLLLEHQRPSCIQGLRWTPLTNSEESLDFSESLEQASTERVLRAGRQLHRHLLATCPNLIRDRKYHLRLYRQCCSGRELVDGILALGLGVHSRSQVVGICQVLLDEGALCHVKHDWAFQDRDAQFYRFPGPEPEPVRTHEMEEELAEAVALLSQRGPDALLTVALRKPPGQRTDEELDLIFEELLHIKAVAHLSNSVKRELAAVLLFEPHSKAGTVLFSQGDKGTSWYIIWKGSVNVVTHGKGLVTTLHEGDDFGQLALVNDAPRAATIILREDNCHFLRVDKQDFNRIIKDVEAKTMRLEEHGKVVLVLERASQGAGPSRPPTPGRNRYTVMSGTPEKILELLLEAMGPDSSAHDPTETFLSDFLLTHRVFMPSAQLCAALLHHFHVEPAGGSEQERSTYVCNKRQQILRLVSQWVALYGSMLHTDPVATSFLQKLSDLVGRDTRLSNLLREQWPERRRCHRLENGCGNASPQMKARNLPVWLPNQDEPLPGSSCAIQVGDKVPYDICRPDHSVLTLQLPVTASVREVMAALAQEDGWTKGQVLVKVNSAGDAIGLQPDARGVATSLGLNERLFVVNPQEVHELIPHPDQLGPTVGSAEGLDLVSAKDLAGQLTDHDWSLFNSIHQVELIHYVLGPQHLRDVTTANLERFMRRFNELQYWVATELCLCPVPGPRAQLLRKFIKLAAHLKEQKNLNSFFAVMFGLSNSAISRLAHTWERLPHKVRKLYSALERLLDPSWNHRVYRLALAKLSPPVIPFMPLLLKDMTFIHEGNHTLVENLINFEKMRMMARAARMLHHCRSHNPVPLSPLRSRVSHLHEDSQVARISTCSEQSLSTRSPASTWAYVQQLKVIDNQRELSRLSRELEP
Assay: Validation qHTS for antagonist of cAMP-regulated guanine nucleotide exchange factor 3 (EPAC1);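 note: plate controls were DMSO for no effect and ATA control for full effect; nearly all actives have a fitted effect of over 75% in size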
Details: EPAC1 Rap1B-BODIPY-GDP exchange, fluorescence; series mostly up to 150 µM; activity change, negative = inhibition: at the top concentration
Summary of the method: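 EPAC1 (100 nM) mixed with 250 nM RAP1B-BODIPY-GDP and 50 uM GDP; compounds in concentration series, 5 min at room temperature. Fluorescence (ex 480/em 540 nm) read every 5 min for 30 min; normalized to ATA control and DMSO.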

Activity change, negative = inhibition, inactive:
Cc1ncc2c(c1CNC(=O)CN1CCCC1)CCN(C(=O)c1ccc(F)cc1F)C2 13.5%
Cn1cnc2c(NCc3ccccc3)nc(NCCO)nc21
O=C(/C=C/c1ccccc1)c1ccc(O[C@H]2OC(CO)C(O)C(O)C2O)cc1O (stereo partly specified) 21.3%
CC(=O)N1CCC[C@@]2(CCN(c3ccncc3)C2)C1 2.93%
CC(C)NC(=O)N1CC[C@@]2(CCCN(S(C)(=O)=O)C2)C1 15%
CC1(C)S[C@@H]2[C@H](NC(=O)[C@H](N)c3ccc(O)cc3)C(=O)N2[C@H]1C(=O)O -6.8%
CCOC(=O)C1=C[C@@]2(CC)CCCN3CCc4c(n1c1ccccc41)C32 (stereo partly specified) 1.81%
O=C(NCCc1ccccn1)C1CC12CCN(C(=O)c1ccccc1Cl)CC2 (stereo unspecified) 26%
Cc1cnc(CNc2ccnc(-c3ccoc3)n2)cn1 4.3%
CCc1cc(S(=O)(=O)O)c2cc(C(C)C)cccc1-2 4.24%
COc1cc(-c2oc3cc(O)ccc3c(=O)c2O)ccc1O -13.2%
OCCOCCN1CCN(C2=Nc3ccccc3Sc3ccccc32)CC1
CCNc1ncc2nc(C)c(=O)n(Cc3ccc(F)cc3)c2n1 -7.06%
Cc1cc(O)c(C)c(O)c1C(=O)O 8.73%
CC[C@@H]1[C@H]2CCCC(=O)N3CC[C@@H](C[C@@H]1Nc1ccccc1)[C@@H]23 16.8%
N=C(N)c1ccc(OCCCCCOc2ccc(C(=N)N)cc2)cc1
COc1ccc(C(=O)N2CCC3(CCN(C(=O)Nc4ccccc4)CC3)CC2)cc1 7.67%
COc1cccc(CN2CCCC(c3nc(C)ncc3-c3ccc(F)cc3)C2)c1OC (stereo unspecified) 1.33%
c1ccc(CNc2ncncc2-c2cccnc2)cc1 21.7%
COC(=O)Nc1nc2ccc(C(=O)c3ccccc3)cc2[nH]1
COc1cccc(-c2cncnc2NCc2cccc(C)c2)c1 -10.7%
NC(=O)C1c2ccccc2CCc2ccccc21 1.19%
Cn1c(NCCN(CCO)CCCc2ccc([N+](=O)[O-])cc2)cc(=O)n(C)c1=O 13.4%
N=C(N)SCCc1ccc(OCc2ccc([N+](=O)[O-])cc2)cc1 -9.83%
Cc1noc(C)c1-c1nccc(NC2CC2)n1 15.4%
c1ccc2sc(SSc3nc4ccccc4s3)nc2c1 13.2%
COCC(=O)Nc1cc(C(=O)N2CC3CCCC2C3)c2c(c1)nc(-c1ccncc1)n2C (stereo unspecified) -9%
Cc1cccc2c(N3CCCC3)nc(CNS(=O)(=O)c3ccccc3F)nc12 -0.903%
O=C(Nc1cccc(F)c1)N1CCCC2(CCN(C(=O)c3ccncc3)CC2)C1 -19.4%
CC(=O)OCC(=O)C1CCC2C3CC=C4CC(O)CC[C@@]4(C)C3CC[C@]12C (stereo partly specified) 7.91%
Cc1ccc(Nc2c(F)cccc2Cl)c(CC(=O)O)c1 13.6%
CCCCN1CC[C@H]2C=CC[C@@H](C(=O)Nc3ccccc3)[C@H]2C1=O 9.14%
COc1ccccc1C(=O)Nc1cccc(N2CCC(NCc3cnn(-c4ccccc4)n3)CC2)c1 2.9%
CN1CC[C@@]2(CCCN(S(=O)(=O)c3ccccc3)C2)C1 -9.91%
CC(NC(=O)C1CCOCC1)c1nnc2n1CCN(Cc1ccc3cccnc3c1)CC2 (stereo unspecified) 9.89%
CC(=O)c1ccc[n+](CC(=O)c2ccc(F)cc2)c1 10.5%
O=C(c1cnccn1)N1CCC2(CC1)CCN(c1ncccn1)CC2 8.65%
CCCCNC(=O)O[C@@H]1C[C@H]2CCCC(=O)N3CC[C@@H](C1)[C@@H]23 9.76%
CC(C)(CO)[C@@H](O)C(=O)NCCCC(=O)O -6.28%
NC(=NCc1ccccc1)NC(=O)c1nc(Cl)c(N)nc1N
C1=Cc2ccccc2/C1=C\c1ccc2c(c1)OCO2 -20.1%
O=C1[C@H](Cc2ccccc2)NC/C=C\C[C@@H](c2ccco2)N1Cc1ccccc1 9.88%
COc1cc(CN2CCOc3ccc(CN4CCC(Oc5cccnc5)CC4)cc3C2)ccc1F 5.21%
Nc1nc(N)c2nc(CNc3ccc(C(=O)NC(CCC(=O)O)C(=O)O)cc3)cnc2n1 (stereo unspecified) 1.43% [at 75.8 µM]
COc1ccc(-n2c(=O)c(-c3cccs3)nc3cncnc32)cc1 21.2%
CCn1nc(C)cc1C(=O)NCCN1Cc2ccccc2OC(c2ccccc2F)C1 (stereo unspecified) -9.65%
Fc1ccc(C(c2ccc(F)cc2)N2CCN(C/C=C/c3ccccc3)CC2)cc1
COC(=O)C1=C(C)NC(C)=C(C(=O)OCC(C)=O)C1c1ccccc1[N+](=O)[O-] (stereo unspecified) 17.7%
c1ccc2c(NCCN3CCOCC3)nc(-c3ccoc3)nc2c1 4.42%
CN1CCc2c(c3ccccc3n2Cc2ccccc2)C1
COc1cc(-c2noc(C)c2C#CC2(O)CCCCC2)cc(OC)c1OC -29%
COc1ccc(NC2=Nc3ccccc3N[C@@]23C[C@H]2CCCC(=O)N4CC[C@@H](C3)[C@@H]24)cc1 6.11%
C[N+]1(CCCCC[N+]2(C)CCCC2)CCCC1
Cc1nc2cncnc2n(Cc2ccc(F)cc2)c1=O 17.7%
Cc1noc(C)c1-c1cncnc1-n1ccnc1 3.01%
O=c1cnc2cnc(OCc3ccccc3)nc2n1CCc1ccccc1 -14.6%
C[C@H](CCC(=O)NCCS(=O)(=O)O)C1CC[C@H]2C3CC[C@@H]4C[C@H](O)CC[C@]4(C)C3C[C@H](O)[C@]12C (stereo partly specified) -1.03%
COCCNc1cc(-c2ccccc2C)ncn1 -13.6%
CSc1ncccc1C(=O)N1CCc2nnc(C(NC(=O)c3ccoc3)C(C)C)n2CC1 (stereo unspecified) 6%
O=C(Nc1ccccc1)c1cc([N+](=O)[O-])ccc1Cl
COC(=O)c1c(OCc2ccccn2)cc(=O)n2c1CCN(C(=O)c1n[nH]c3c1CCCC3)CC2 8.01%
COc1ccc(-c2oc3cc(O[C@@H]4OC(CO)C(O)C(O)C4O)c(OC)c(O)c3c(=O)c2OC)cc1O (stereo partly specified) 14.8%
CN1CCCC2(CCN(C(=O)c3cc(C(F)(F)F)cc(C(F)(F)F)c3)CC2)C1 9.5%
COc1cccc(Nc2ncc3nc(-c4cccs4)c(=O)n(CCC#N)c3n2)c1 38.1%
CC1O[C@@H](O[C@@H]2C(O)C[C@H](O[C@@H]3C(O)C[C@@H](OC4CC[C@@]5(C)C6CC(O)[C@@]7(C)C(C8=CC(=O)OC8)CC[C@@]7(O)C6CC[C@@H]5C4)OC3C)OC2C)CC(O)[C@H]1O (stereo partly specified) 14.6%
C[C@H]1CC2C3CCC4=CC(=O)C=C[C@]4(C)[C@@]3(Cl)[C@@H](O)C[C@]2(C)[C@@]1(O)C(=O)CO (stereo partly specified) 4.46% [at 75.8 µM]
